Test results as given in paper PMC6919601, “Identification of Plasmodium dipeptidyl aminopeptidase allosteric inhibitors by high throughput screening” (PLoS ONE, 2019).
Screen size: about 110,000 compounds; about 230 (0.21%) showed an effect of 50% or more. The list shows a part of the results.

target: DPAP1 (Plasmodium falciparum, UniProt Q8IIJ9); assay: primary screen, percent inhibition; read by cleavage of a fluorogenic dipeptide substrate; higher = more effect of the substance; design: species or system P. falciparum D10 trophozoite lysates; single well
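Note: 30 min substrate incubation versus DMSO and 10 µM JCP410 controls.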

Chain of DPAP1 (Q8IIJ9 whole entry, looked up): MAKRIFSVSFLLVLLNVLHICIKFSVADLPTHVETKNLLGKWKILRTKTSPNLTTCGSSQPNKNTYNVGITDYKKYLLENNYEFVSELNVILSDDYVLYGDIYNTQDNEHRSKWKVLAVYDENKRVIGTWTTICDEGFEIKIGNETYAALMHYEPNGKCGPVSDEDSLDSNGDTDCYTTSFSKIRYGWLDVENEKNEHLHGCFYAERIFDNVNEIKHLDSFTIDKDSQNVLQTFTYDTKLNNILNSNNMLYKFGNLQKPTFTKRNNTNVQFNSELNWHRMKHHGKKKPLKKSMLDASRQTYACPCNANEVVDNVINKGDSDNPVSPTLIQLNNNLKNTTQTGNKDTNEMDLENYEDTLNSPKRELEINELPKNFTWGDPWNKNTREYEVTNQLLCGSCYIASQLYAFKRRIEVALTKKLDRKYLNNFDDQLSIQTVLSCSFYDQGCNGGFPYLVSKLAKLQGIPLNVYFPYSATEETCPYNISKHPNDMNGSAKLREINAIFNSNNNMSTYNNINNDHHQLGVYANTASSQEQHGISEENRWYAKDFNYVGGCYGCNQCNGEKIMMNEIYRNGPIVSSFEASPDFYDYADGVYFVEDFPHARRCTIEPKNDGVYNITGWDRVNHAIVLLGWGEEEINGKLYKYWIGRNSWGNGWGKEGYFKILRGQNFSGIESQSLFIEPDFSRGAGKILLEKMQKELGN

| Structure (SMILES) | % Inhibition @ 10 uM |
| --- | --- |
| Nc1c(C(=O)c2ccc(F)cc2)oc2ccccc12 | 4.08% |
| CC1CCN(c2ccc3nnc(CCC(=O)NCc4ccc5c(c4)OCO5)n3n2)CC1 | -11% |
| COc1ccc2c(c1)OC1(C)CC2C(S(=O)(=O)c2ccc(C(C)C)cc2)C(=O)N1C (stereo not drawn) | -0.72% |
| O=C1c2cccnc2C(=O)N1Cc1ccc(F)cc1S(=O)(=O)NC1CCCCCC1 | 2.48% |
| Cc1nc(CC(=O)Nc2ccc(Br)cc2)cs1 | 5.03% |
| Cc1cccc(NS(=O)(=O)c2ccc(Cl)cc2)c1 | -3.65% |
| O=C1N=C(N2CCCCC2)S/C1=C\c1cccs1 | -3.26% |
| COc1cccc(/C=C(\C#N)c2nc3ccccc3[nH]2)c1O | 5.7% |
| COc1ccc(Cc2nnc(NC(=O)Cc3cccs3)s2)cc1OC | -2.92% |
| Cc1c2ccccc2n2cc(-c3ccccc3)nc(C(C)C)c12 | -2.2% |
| O=C(COc1ccccc1Cl)NCCC1=CCCCC1 | 3.79% |
| CCc1cc2c(Nc3ccncc3)ncnc2s1 | 3% |
| Cc1ccc(-n2nnc3c(=O)n(CC(=O)NCc4ccc(F)cc4)cnc32)cc1 | -4.17% |
| CC(C)C[C@H](NS(=O)(=O)c1cccc(C(F)(F)F)c1)C(=O)NCC#N | -14% |
| CC(CC(NC(=O)OCc1ccccc1)C(=O)NCC#N)c1ccccn1 (stereo not drawn) | -3.48% |
| COc1ccc(C2(C(=O)NCc3ccco3)CCOCC2)cc1 | -4.85% |
| COC(=O)c1nc2nc(C)cc(C)n2n1 | -3.26% |
| CC(C)(O)C#Cc1ccc(C(=O)NCc2ccccc2F)cc1 | -4.49% |
| CC(C)CC(NC(=O)c1cccc(NC(=O)NC2CCN(Cc3ccccc3)CC2)c1)C(=O)NCC#N (stereo not drawn) | 3.66% |
| COc1ccc(CNCc2c(C(=O)O)n(Cc3ccc(C)cc3)c3cc(C)ccc23)c(OC)c1 | 10.2% |
| COc1cc(OC)c(OC)cc1CN1CCN(C(=O)Cc2ccccc2)CC1 | -1.55% |
| COc1ccc(C2c3c(oc4ccccc4c3=O)C(=O)N2c2nc(C)c(C)s2)cc1OC (stereo not drawn) | 0.161% |
| CC(C)CNC(=O)c1ccccc1NS(=O)(=O)c1ccccc1 | -2.28% |
| CCOc1ccc(CN2CCC3(C=Cc4ccccc43)CC2)cc1 | -1.64% |
| COCCNC(=O)CCc1c(C)nc2c(c1C)c(=O)n(C)c(=O)n2C | -4.97% |
| Brc1csc(CN2CCN(c3ccccn3)CC2)c1 | -0.0404% |

| Structure (SMILES) | % Inhibition @ 10 uM |
| --- | --- |
| COc1ccc2c(c1)CCc1c(C(=O)NCCc3ccccc3)noc1-2 | -0.591% |
| CC1CCc2nc(NC(=O)COc3ccccc3Cl)sc2C1 (stereo not drawn) | -3.77% |
| Cc1ccc(C)c(NC(=O)CN(c2cccc(C(F)(F)F)c2)S(C)(=O)=O)c1 | 1.59% |
| O=C(O)c1ccc(S(=O)(=O)c2ccc(S(=O)(=O)c3ccc(C(=O)O)c(C(=O)O)c3)cc2)cc1 | -1.74% |
| Cc1ccc(CNC(=O)CN(C)S(=O)(=O)c2cc(Br)cnc2N)cc1 | 1.68% |
| CSc1nc(-c2ccccc2)nc2c1Cc1ccccc1O2 | -8.42% |
| CCOC(=O)c1ccc(-n2cc3c(=O)n(C)c(=O)n(C)c3c2)cc1 | 2.95% |
| O=C(CCC(=O)N1Cc2ccccc2Oc2ncccc21)NCCCc1ccccc1 | -4.51% |
| CCC1CCc2nc3sc(C(=O)NC(C)c4ccccc4)c(N)c3cc2C1 (stereo not drawn) | -1.47% |
| COC(=O)c1cnn2c(C(F)(F)F)cc(C)nc12 | 2.9% |
| Cc1ccc2nc(O)c3cc(C(=O)NCC4COc5ccccc5O4)sc3c2c1 (stereo not drawn) | 1.72% |
| O=C(NCc1cccs1)C1CCN(S(=O)(=O)c2ccc3[nH]c(-c4ccccc4)nc3c2)CC1 | 9.84% |
| COc1ccc(Br)cc1/C=C/C(=O)NCC(=O)O | -0.406% |
| CCN(Cc1ccccc1)Cc1c(O)ccc2ccccc12 | -3.15% |
| CCNC(=O)N(Cc1nc(-c2ccc(Cl)cc2)no1)C1CCCCC1 | 0.00706% |
| COc1ccc2[nH]cc(CCNC(=O)c3ccccc3)c2c1 | 3.34% |
| C=C(C)[C@@H]1CC=C(CN(C)CC(O)c2ccccc2)CC1 (stereo partly drawn) | 1.57% |
| Cc1ccc(CS(=O)Cc2ccc(C(=O)NCc3cccc(Cl)c3)o2)cc1 (stereo not drawn) | -3.35% |
| O=C(NCc1ccccc1)c1ccc2oc(=O)c(S(=O)(=O)c3ccccc3)cc2c1 | 2.12% |
| CCOc1ccc(C(C)=O)cc1CN(CC)CC | 11.4% |
| Cc1nc(O)c2sc3nc4c(cc3c2n1)COC(C)(C)C4 | 18.5% |
| CCCOc1ccc(C(=O)Nc2ccc(NC(C)=O)cc2)cc1 | 3.53% |
| CCCc1[nH]nc2c1C(c1ccc(OC(C)C)c(OCC)c1)C(C#N)=C(N)O2 (stereo not drawn) | -8.3% |
| CCCCNC(=O)c1ccc(CNS(=O)(=O)c2ccc(C)cc2)cc1 | 2.35% |
| COC(=O)c1nnn(-c2nonc2N)c1CSc1ncccn1 | -0.0735% |
| c1ccc(-c2nnc(-c3ccccn3)nn2)nc1 | -2.65% |

| Structure (SMILES) | % Inhibition @ 10 uM |
| --- | --- |
| CSc1nc2ccccc2n1CC(=O)NC(c1ccccc1)c1ccccc1 | 1.13% |
| NC(=O)c1c(NC(=O)c2cccs2)sc2c1CCCCCC2 | 7.09% |
| CSc1nc(N)c2c3c(sc2n1)CCCCC3 | 2.62% |
| CC1CCN(CCCNC(=O)CCCc2nnc3n(C)c(=O)c4sccc4n23)CC1 | 1.13% |
| CCCCOC(=O)CNc1nnc(S)nc1O | -7.52% |
| CCC1CCCCN1C(=O)c1cnn(-c2ccc(F)cc2)c1-n1cccc1 (stereo not drawn) | -4.81% |
| CC(C)CC1=NN2C(=O)CC(=O)N=C2S1 | 3.82% |
| CN(C)c1cc(NC(=O)C23CC4CC(CC(C4)C2)C3)c2ccccc2n1 | 16.5% |
| COc1ccc(S(=O)(=O)N(CCc2ccccc2)CC(=O)O)cc1OC | -5.5% |
| O=C(O)c1ccccc1Sc1c(O)cc(-c2ccccc2)n(-c2ccccc2)c1=O | 3.05% |
| COc1ccc2nc3sc(C(=O)N4CCOCC4)cc3cc2c1 | 89.7% |
| CCC(Sc1nc2cccnc2[nH]1)C(=O)NCc1ccc(C)cc1 (stereo not drawn) | -1.68% |
| CCCCNC(=O)c1nc(C)c(C)nc1C(=O)Nc1ccccc1F | -7.3% |
| COCCCNCc1c(C(=O)O)n(Cc2ccc(F)cc2Cl)c2cc(OC)ccc12 | 0.711% |
| CCCN(Cc1ccoc1)CC1CC1 | -5.65% |
| Cc1ccc(S(=O)(=O)NCC23C=CC(O2)C2C(=O)N(Cc4ccccc4)C(=O)C23)cc1 (stereo not drawn) | 1.7% |
| CCN1CCC(Nc2cccc(SC)c2)CC1 | -3.6% |
| CCCC1=C(C(=O)OCC)C(c2cc(Br)cs2)C(C#N)=C(N)O1 (stereo not drawn) | 6.18% |
| Cc1ccc(OCCCCCn2ccnc2)cc1C | -2.78% |
| CCN1CCc2c(sc3nc(S)nc(N)c23)C1 | 42.8% |
| COc1ccc2cc3c(N)nn(C(=O)c4ccc(C(C)(C)C)cc4)c3nc2c1 | 14.2% |
| O=C(Nc1cccnc1Cl)c1cc2n(n1)C(C(F)(F)F)CC(c1ccc3c(c1)OCO3)N2 (stereo not drawn) | 4.77% |
| O=C(CSCc1c(Cl)cccc1Cl)Nc1ccc2c(c1)C(=O)N(CC1CCCO1)C2=O (stereo not drawn) | 2.18% |
| CCOCCCNC(=O)c1ccc2nc(-c3ccco3)c(-c3ccco3)nc2c1 | 4.85% |
| COc1cc(C2C(C#N)=C(N)Oc3[nH]nc(C)c32)ccc1OC(C)C (stereo not drawn) | -2.46% |
| COc1ccc(-n2c3c(c(=O)[nH]c2=O)C(C(F)(F)F)(C(F)(F)F)NC(Cc2ccccc2)=N3)cc1 | 1.72% |

| Structure (SMILES) | % Inhibition @ 10 uM |
| --- | --- |
| O=C(Cn1cnc2ccccc2c1=O)Nc1nc2c(s1)CCCC2 | 3.66% |
| Cc1cc(/C=C2\NC(=O)NC2=O)c(C)n1-c1cccc(C(=O)O)c1 | -7.62% |
| O=C(CCn1nc(-c2ccc(Cl)cc2)ccc1=O)N1CCOCC1 | 1.41% |
| O=C(O)CSc1nnc(COc2cccc3cccnc23)n1-c1cccc(C(F)(F)F)c1 | 2.74% |
| CCOC(=O)CN1CCN(c2ccc(F)cc2)CC1 | 0.605% |
| Cc1cc(C)c2c(O)nc(SCC(=O)NCCc3ccccc3)nc2n1 | -3.21% |
| COc1cccc2ccc(=O)n(C)c12 | -4.01% |
| O=C(Cn1cnc2onc(-c3ccc(F)cc3)c2c1=O)NCC1CCCO1 (stereo not drawn) | -4.36% |
| Cc1nc2c3cccnc3nn2c(C)c1CCC(=O)N1CCN(Cc2ccc3c(c2)OCO3)CC1 | 3.2% |
| Cc1ccc(OCCCCc2c(C)n[nH]c2C)cc1 | -2.12% |
| Cc1ccc(NC(=O)C2CCN(S(=O)(=O)c3ccc4nc(O)ccc4c3)CC2)nc1 | -4.68% |
| O=C(NCCCN1CCOCC1)c1ccc(CN2C(=O)CCn3nccc32)cc1 | 1.72% |
| N#Cc1sc2nc(-c3ccc4c(c3)OCO4)ccc2c1N | -2.45% |
| CC1CC(C)CN(c2nnc(N)s2)C1 (stereo not drawn) | -1.99% |
| O=C(CCn1c(=O)c2cccn2c2cccnc21)NCc1ccccn1 | -2.44% |
| Cc1ccc(C(=O)NC(C)C2CC3CCC2C3)s1 (stereo not drawn) | 1.64% |
| Cc1[nH]c2ccc(C(=O)N3CCCCCC3)cc2c1C | 0.0489% |
| COc1ccc(S(=O)(=O)NCC2CCCO2)cc1-c1nnc2c3ccccc3c(C)nn12 (stereo not drawn) | -4.78% |
| COc1cccc(C(=O)N2CCN(C(=O)c3cc(OC)c(OC)c(OC)c3)CC2)c1 | -7.93% |
| Oc1c2c(nc3nncn13)-c1ccccc1CC21CCCCC1 | -3.77% |
| CC(C)(C)NC(=O)c1ccc(COc2ccc(Cl)cc2Cl)o1 | 5.3% |
| CCc1ccc(C2C(C#N)=C(N)OC3=C2C(=O)CC(C)(C)C3)s1 (stereo not drawn) | -0.941% |
| Cc1cc(-c2ccc(C)c(S(=O)(=O)NCC3CCCO3)c2)on1 (stereo not drawn) | -0.257% |
| COc1ccc(/C=C2\SC(N3CCCC3)=NC2=O)cc1 | -2.8% |
